About 4,300 (8.3%) of roughly 52,000 compounds were called active. No stated cut-off is given here; in the data, active means survival mostly below about 52% (no sharp cut-off); inactive means mostly above about 56%. Some of the results follow.

The subject of this experiment is DeltatarO mutant. Description: S. aureus survival, RN4220 and DeltatarO strains – OD600, teichoic acid synthesis inhibitors, primary screen (AID 463173). The conditions noted are these: S. aureus RN4220 wild type/DeltatarO growth, OD600, 18 h, stronger effect = lower value, screened at 18.75 µg/mL (by protocol).
As for `COc1cc(C)cc2oc(=O)c(CC(=O)NCCc3ccc(Cl)cc3)c(C)c12`, the survival was inactive: 100%. The figure for `COc1ccc(-n2c(C)nc(=O)c(-c3ccccc3)c2C)cc1` is inactive: 81%. In the case of `CCN(C(=O)Nc1cn(CC(C)C)c(=O)c2ccccc12)c1cc(C)ccc1C` it was inactive: 66%.

For the compound `Cc1ccc(CNC(=O)CCn2cnc3ccccc3c2=O)cc1`, the survival is inactive: 73%. The figure for `Cc1ccc2nc(Nc3ccc(C)c(F)c3)c3nncn3c2c1` is active: 38%; for `Cc1c(Cl)cccc1NC(=O)C1CCN(c2ncnc3c2nc2n3CCCCC2)CC1` it is inactive: 109%. With `N#C/C(=C\c1cn(Cc2ccccc2C#N)c2ccccc12)C(=O)NCc1cccs1`, the survival is inactive: 89%. In the case of `COc1ccccc1CN1C(=O)CN(C2CCCCCC2)C(=O)C1c1ccc(F)cc1` (centres undefined) it was inactive: 78%; in that of `Cc1ccnc(NC(=O)CCCOc2ccc(Cl)cc2Cl)c1`, inactive: 81%; in that of `CCn1nc(C)c(CCN(C)C(=O)Nc2cc(OC)c(OC)c(OC)c2)c1C`, inactive: 89%. With `Cc1ccc(N2CC(NC(=O)c3ccc(S(=O)(=O)N4CCOCC4)cc3)CC2=O)cc1` (centres undefined), the survival was inactive: 60%. As for `O=c1c2ccccc2nc2c3ccccc3c(N3CCCCCC3)nn12`, the survival was inactive: 103%. `COc1ccc(C)cc1NC(=O)C1CCN(S(=O)(=O)c2ccc(OC)c(OC)c2)CC1`: the survival is inactive: 92%. The figure for `C=Cn1c(C(=O)O)ccc1-c1ccc(OC)cc1` is inactive: 110%. In the case of `Cc1ccc(CCNS(=O)(=O)c2ccc3c(c2)CC(C)N3C(=O)C2CCC2)cc1` (centres undefined) it was inactive: 72%; in that of `Cc1oc(-c2ccccc2Cl)nc1Cn1c(SCc2cccc(F)c2)nc2cccnc21`, inactive: 75%.

In the case of `Cc1nc(-c2ccccc2)sc1-c1ccc(SCC(=O)NCc2ccc(Cl)cc2)nn1`, the survival was inactive: 52%. The figure for `CC(=O)c1cccc(NC(=O)CC(c2ccc(C)cc2)N2Cc3ccccc3C2=O)c1` (centres undefined) is inactive: 78%; for `CC(C)CNC(=O)N1[C@H](c2cccs2)[C@@H](C)C(=O)[C@@H](C)[C@@H]1c1cccs1` it is inactive: 54%; for `COc1ccc(-c2cc(C(F)(F)F)n3nc(C(=O)NCCN4CCOCC4)c(Br)c3n2)cc1` it is inactive: 107%. For the compound `Cc1cccc(OCC(=O)Nc2ccc(-c3nc4ccccc4o3)cc2)c1C`, the survival is active: 52%. In the case of `CCn1nnnc1SCC(=O)c1ccc(C)cc1C` it was inactive: 84%; in that of `COc1ccc(C)cc1NS(=O)(=O)c1c(C(=O)N2CCCCCC2)c(C)n(C)c1C`, inactive: 82%.

On to `CC(C)OCCCNC(=O)Cn1ccc2cc(S(=O)(=O)N3CCCCCC3)ccc21`, for which the survival was inactive: 122%. In the case of `CC(C)Nc1nc(NC(C)C)nc(C(N)=O)n1` it was inactive: 110%; in that of `CC(=O)NC1(c2ccccc2)CCN(Cc2nnnn2C(C)(C)C)CC1`, inactive: 91%; in that of `CCN(CC)C(=O)CSc1nc2ccccc2cc1C`, inactive: 87%. Take `Cc1cc(C)n(-c2nc3ccccc3nc2Nc2ccc(Cl)c(C(=O)OC(C)C)c2)n1`: the survival was inactive: 99%. In the case of `CCc1cccc2c(C#N)cn(CC(=O)N(CC)CC)c12` it was inactive: 88%; in that of `COCCCNC(=O)c1ccc(-n2c(-c3ccccc3)cc3c2CCCC3)cc1`, inactive: 70%. With `O=C(OCc1cc(=O)n2nc(C3CCCCC3)sc2n1)c1ccccc1Cl`, the survival was inactive: 83%. Regarding `COc1cccc(-c2nnc(SCC(=O)N3CCC(C)CC3)o2)c1`, the survival was inactive: 54%. `CCN1CC=C2C(C#N)=C(N)C(C#N)(C#N)C(C)C2C1` (centres undefined): the survival is inactive: 80%. For the compound `Cc1cc(C)cc(NS(=O)(=O)c2ccc3[nH]cc(C(=O)NC4CCCCC4)c(=O)c3c2)c1`, the survival was active: 17%. In the case of `CCn1cc(S(=O)(=O)c2ccccc2)c(=O)c2cc(F)c(N3CCCC3)cc21` it was inactive: 107%; in that of `Cc1ccc(Cl)cc1NC(=O)Cn1c(=O)n(Cc2ccccc2)c(=O)c2oc3ccccc3c21`, inactive: 81%. As for `Cc1ccc(CCNC(=O)CCCn2c(=O)c3ccccc3n(Cc3ccccc3C#N)c2=O)cc1`, the survival was inactive: 90%.

Consider `CCn1cc2c(n1)-c1c(oc(C(=O)Nc3cccc(C)c3C)c1C)CC2`, for which the survival is inactive: 95%. Take `Cc1ccc(CNC(=O)CCc2c(C)nc3nc(C)nn3c2C)cc1`: the survival was inactive: 103%.

As for `N#Cc1c(C(F)(F)F)cc(-c2cccs2)nc1SCC(=O)Nc1ccccc1F`, the survival is inactive: 145%. Turning to `CCc1ccc(O)c(C(=O)c2cnc3cc(-c4ccc(C)cc4)nn3c2)c1`, the survival was inactive: 89%.

As for `Cc1cc(C)cc(NC(=O)CSc2oc(-c3ccccc3)nc2S(=O)(=O)c2ccccc2)c1`, the survival is inactive: 143%.

For the compound `O=C(c1ccc2c(c1)N(Cc1ccccc1F)C(=O)c1ccccc1S2(=O)=O)N1CCN(c2ccccc2F)CC1`, the survival was inactive: 94%. In the case of `CNS(=O)(=O)c1ccccc1C(=O)N/N=C/c1ccc(OC)c(OC)c1` it was inactive: 76%; in that of `CCN(CC)C(=O)c1sc2c(c1C)c(=O)n(CCc1ccccc1)c(=O)n2Cc1ccc(F)cc1Cl`, inactive: 89%.

`COc1cc(OC)c(OC)cc1/C=C/c1nc2cc3ccccc3cc2c(=O)n1-c1ccc(F)c(Cl)c1`: the survival was inactive: 79%.

Turning to `O=C(c1cc(-c2ccccc2O)on1)N1CCCCC1`, the survival is active: 40%. As to `CCc1c(C)nc(SCc2nc(-c3ccccc3)no2)[nH]c1=O`, the survival was inactive: 112%. The figure for `O=S(=O)(c1ccc2c(c1)Cc1ccccc1-2)N1CCOCC1` is inactive: 113%.

As to `O=C(c1ccccc1)c1ccc2nc(-c3ccco3)c(-c3ccco3)nc2c1`, the survival was inactive: 90%.

Consider `O=C(CSCc1ccc(F)cc1)N1CCN(c2ccc(Cl)cc2)CC1`, for which the survival was inactive: 95%.

Turning to `Clc1ccc(CN2CCC(CNc3ncnc4onc(-c5ccc(Cl)cc5)c34)CC2)cc1`, the survival is inactive: 50%. The figure for `COc1ccc(C2=C/C(=C/c3ccco3)C(=O)O2)cc1` is inactive: 105%; for `Cc1ccc(/C=C2\SC(=O)NC2=S)o1` it is active: 33%. On to `Cc1ccc(OCC(=O)Nc2cccc(-c3nc4ccccc4o3)c2C)cc1C`, for which the survival is active: 55%. With `O=C(c1cc2sccc2n1Cc1ccccc1)N1CCN(Cc2ccc3c(c2)OCO3)CC1`, the survival was inactive: 86%. In the case of `COc1ccc2cc(-c3nc(Cl)c4c5c(sc4n3)CC(C)CC5)c(=O)oc2c1` (centres undefined), the survival was active: 77%. The figure for `O=C(Cn1c(=O)n(-c2cccc(Cl)c2)c(=O)c2sc3ccccc3c21)NC1CCCCC1` is inactive: 127%; for `CNC(=O)C1CCC(Cn2c(=O)c3sccc3n(CC(=O)NCc3ccc(OC)cc3)c2=O)CC1` (centres undefined) it is inactive: 135%; for `COc1ccccc1NC(=O)c1c(NC(=O)COc2ccccc2)sc2c1CCCCC2` it is inactive: 85%. As to `CN(C)CCN1C(=O)C2C3C=CC(C3)C2C1=O` (centres undefined), the survival was inactive: 112%. The figure for `O=C(Cn1ccn(-c2ccc(F)c(F)c2)c(=O)c1=O)NCCc1ccccc1` is inactive: 69%; for `CN(c1ccccc1C(=O)NCc1ccco1)S(C)(=O)=O` it is inactive: 89%. As to `Cc1cc(C)cc(NC(=O)c2cc(S(=O)(=O)N3CCC(C)CC3)cn2C)c1`, the survival is inactive: 87%. Consider `CC(=O)c1cccc(NC(=O)CCc2c(C)nc3c(c(C)nn3-c3ccccc3)c2C)c1`, for which the survival was inactive: 69%. In the case of `CCCCNc1nc(Oc2ccc(=O)n(C)n2)nc(N2CCOCC2)n1` it was inactive: 81%; in that of `COc1ccc(NC(=O)c2c(NC(=O)c3ccncc3)sc3c2CCC(C(C)(C)C)C3)cc1` (centres undefined), active: 41%.

Regarding `COc1cccc(Cn2c(=O)n(CCc3ccccc3)c(=O)c3c2c2cc(OC)ccc2n3C)c1`, the survival is inactive: 81%. For the compound `Cc1ccc(Cl)cc1NC(=O)C1CCN(S(=O)(=O)c2cccc3nonc23)CC1`, the survival is inactive: 106%. The figure for `COc1cc(NC(=O)C(Cc2ccccc2)NS(=O)(=O)c2cccc3nsnc23)cc(OC)c1` (centres undefined) is inactive: 72%. Take `Cc1cccc(NC(=O)CSc2nc3ccccc3nc2N2CCCCC2)c1C`: the survival is inactive: 75%. Consider `COc1cc2[nH]c(=O)n(CCC(=O)N3CCN(c4ccc(Cl)cc4)CC3)c(=O)c2cc1OC`, for which the survival was inactive: 81%. In the case of `CCn1nc(-c2ccccc2)c(-c2ccccc2)c(C(=O)Nc2ccccc2C#N)c1=O` it was inactive: 67%.

Turning to `CCS(=O)(=O)N1CCN(Cc2nc3sc4c(c3c(=O)[nH]2)CCC(C(C)(C)C)C4)CC1` (centres undefined), the survival is inactive: 104%. The figure for `O=S(=O)(Cc1ccccc1)NCc1ccco1` is inactive: 54%. As for `Cc1cc(C)c(/C=C/c2onc(C)c2S(=O)(=O)N2CCC(C(=O)NCc3ccccc3Cl)CC2)c(C)c1`, the survival was inactive: 89%.

In the case of `CCN(CC)C(=O)N1CCN(C(=O)N(CC)CC)CC1`, the survival was inactive: 79%. In the case of `O=C(CCC1N=C2c3ccccc3N=C(SCc3cccc(Cl)c3)N2C1=O)N1CCN(c2ccccc2)CC1` (centres undefined) it was active: 47%. Turning to `CCOc1ccc(-c2cc3c(=O)n(CC(=O)Nc4cc(F)ccc4C)ccn3n2)cc1`, the survival was inactive: 81%. For the compound `Cc1cc(C)c2c(=O)cc(C(=O)Nc3c(C)n(C)n(-c4ccccc4)c3=O)oc2c1`, the survival is inactive: 65%. Consider `COc1ccc(C(=O)c2c(N)c(-c3nc(-c4ccc(OC)cc4)cs3)c3ccccn23)cc1`, for which the survival is inactive: 79%. Regarding `O=C(CN1C(=O)c2cccnc2Oc2ccc(Cl)cc21)NCCc1ccccc1`, the survival was inactive: 95%.

Regarding `Cc1ccccc1OCC(=O)NCCN1CCCC1`, the survival is inactive: 96%. The figure for `COc1ccc(OCC(O)CN(Cc2ccccc2)Cc2ccccc2)cc1` (centres undefined) is inactive: 88%; for `CC(C)(C)C(=O)Cn1c(=O)n(-c2ccccc2)c(=O)c2c3c(sc21)CCC3` it is inactive: 80%; for `Cc1ccc(NC(=O)CN2C(=O)COc3ccc(S(=O)(=O)NC4CCCC4)cc32)cc1Cl` it is inactive: 69%. For the compound `Cc1cc(NC(=O)CSc2ncc(C(=O)Nc3ccc(Cl)cc3)c(=O)n2C)no1`, the survival was inactive: 71%. In the case of `CCOC(=O)C1CCN(C(=O)Cn2ncc3c4ccccc4n(Cc4ccc(F)cc4)c3c2=O)CC1` it was inactive: 78%. `COc1ccc(S(=O)(=O)c2c(O)c3ccc(C(=O)NCc4ccc(Cl)cc4)cc3[nH]c2=O)cc1`: the survival was inactive: 89%.

The values are drawn from PubChem BioAssay AID463173 (ICCB-Longwood Screening Facility, Harvard Medical School, 2010).
